The test system of the series is ATP. In words: switch fluorescence ratio, 500 uM ATP over buffer (Cy3 cluster intensity, sum of 5 cycles each) (fold (ratio)); higher = stronger signal-on switching upon ATP binding; sequences stand for … in TCGTCGGCAGCGTCAGATGTGTATAAGAGACAGTTTTTTTTTTTTTTTTTTTTTTTTT…TC. The note with it: aptamer strand: ATP DNA aptamer (quencher-CACCTGGGGGAGTATTGCGGAGGAAGG + anchor), 100 nM annealed; ATP concentration: 500 uM; one replicate. Put shortly:
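Cy3-labelled switching-strand clusters on a modified Illumina MiSeq flow-cell were annealed to 100 nM quencher-labelled ATP aptamer, imaged in selection buffer, then imaged after 15 min with 500 uM ATP at 22 °C. Five buffer/ATP cycles ran, with NaOH stripping and re-annealing between them. The fluorescence ratio is summed target-cycle over summed buffer-cycle Cy3 intensity per cluster, averaged per switch-domain sequence. Clusters outside 100-1000 RFU were excluded.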

Drawing on the supplement of paper PMC10126150, this text covers switch fluorescence ratio for 67 sequences.

Values marked as one replicate rest on one cluster of the flow cell; about a third of the high ones do not repeat.
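Further: ATP exposure 15 min at 22 °C before imaging.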

In the case of AAATATCACT, the switch fluorescence ratio came out at 1.01.
Consider GGTGACCGGG, for which the switch fluorescence ratio worked out at 0.938.
As for GGAGACTTTC, the switch fluorescence ratio is 0.923.
For the sequence GGTACTTGGT, the switch fluorescence ratio turned out to be 1.03.
On to GGTCTCATGC, for which the switch fluorescence ratio came out at 1.02.
For TATGTTAGG the value was 1.02; for GATGCCGCT, 0.982.
In the case of CGGTTAGATT, the switch fluorescence ratio worked out at 0.984.
Turning to TAGCTGAAAT, the switch fluorescence ratio turned out to be 0.975.
With AGCCCTTTAG, the switch fluorescence ratio is 1.05.
Consider TGGTTTTATC, for which the switch fluorescence ratio was 1.01.
For ACCGGTTTGT, the switch fluorescence ratio amounted to 0.979.
Take TCGGCGTTAG: the switch fluorescence ratio came out at 1.05.
With GGACCGTGGT, the switch fluorescence ratio turned out to be 0.98.
With AGTGTCTCG, the switch fluorescence ratio was determined as 1.05.
To GTCTGTGGGG belongs 0.986; to AGAGCGGGAT, 0.999; to GCTAAATACT, 1.17.
To AAGGATCCTG belongs 1.02.
On to TGTCATTGCT, for which the switch fluorescence ratio amounted to 0.925.
CCGTTGCCCG: the switch fluorescence ratio amounted to 1.05.
Consider CATTAGGGCC, for which the switch fluorescence ratio came to 1.02.
As for CAATCCCTCG, the switch fluorescence ratio was determined as 1.03.
Turning to TTTTCTCCAC, the switch fluorescence ratio is 1.05.
Regarding CGTGACAGCG, the switch fluorescence ratio amounted to 0.978.
In the case of AAGGTTATCG, the switch fluorescence ratio is 1.05.
On to CGTTCCTACT, for which the switch fluorescence ratio was 1.05.
Turning to GGGACGGTCT, the switch fluorescence ratio amounted to 1.06.
As for GATTGGGAAT, the switch fluorescence ratio stood at 1.01.
Turning to AAGTATAGAT, the switch fluorescence ratio worked out at 0.988.
In the case of ACGTGCCAGC, the switch fluorescence ratio was determined as 0.98.
To AAGCACAGA belongs 1.13; to CAGTTTGTGT, 1.
As for AATCTGGACT, the switch fluorescence ratio worked out at 0.987.
On to TTGTACCGG, for which the switch fluorescence ratio amounted to 0.964.
On to GCAGTATGTA, for which the switch fluorescence ratio stood at 1.01.
For ACTAGTGGCT the value was 0.958; for ACCGTTAT, 1.08; for TCTGTTATAG, 1.11.
Take TAATCAGGAC: the switch fluorescence ratio turned out to be 0.995.
Consider CTTTGCTAG, for which the switch fluorescence ratio was 0.985.
Consider TGTTAACGGA, for which the switch fluorescence ratio is 1.04.
To TCGGTTCTCT belongs 0.992.
ATATCTTGCG: the switch fluorescence ratio was determined as 1.02.
With CGCGTCACGG, the switch fluorescence ratio stood at 1.04.
Take GTGTAAGT: the switch fluorescence ratio was determined as 0.971.
ATGATATCCT: the switch fluorescence ratio is 1.07.
In the case of TAGTCTCAC, the switch fluorescence ratio came out at 1.01.
Take TCTGTGTCGG: the switch fluorescence ratio is 1.04.
As to CTCAGGAGTG, the switch fluorescence ratio was determined as 1.01.
CGTCGTTGAA: the switch fluorescence ratio was 1.08.
To GGTGGGGCCG belongs 0.956; to CCTAAGGACT, 1.01; to TTCTAACCTC, 1.04.
Take ACCACACAAT: the switch fluorescence ratio stood at 1.19.
Consider CACTGAAGTA, for which the switch fluorescence ratio came to 0.983.
To CTTAAAAGAT belongs 0.961; to AACGCGATTG, 1.19; to GCATGGGTCA, 0.98.
To AGAACAGTTT belongs 0.939; to TTTCGACGCG, 0.996.
As to TTTTATAACA, the switch fluorescence ratio was determined as 0.989.
For the sequence TACTAAAGCA, the switch fluorescence ratio is 1.1.
With CCGTGCTTTA, the switch fluorescence ratio was found to be 1.24.
Take GAGAAAATT: the switch fluorescence ratio was determined as 1.06.
Regarding ACGTGCCATA, the switch fluorescence ratio came to 0.976.
As to TGCATGGCTT, the switch fluorescence ratio was found to be 0.951.
